Source: PubChem BioAssay AID624296 (National Center for Advancing Translational Sciences (NCATS), 2012)
Screen size: about 350,000 compounds; about 9,900 (2.8%) were called active. Inconclusive means that the source gave no clear call. Such entries were picked first, then a sample of the others. Calls come from the whole dose curve; as a rule, active = well fitted activation curve with a large enough effect; inconclusive = small, poorly fitted or top-dose-only effect; inactive = no such curve, though single readings can be large or run the other way. Potencies of inconclusive entries are left out as doubtful fits.

Assay: A quantitative high throughput screen for small molecules that induce DNA re-replication in MCF 10a normal breast cells. For activity, positive = re-replication: % of control where 0% means no effect. Note: nearly all actives have a fitted effect of over 50% in size.
Settings: MCF 10A DNA re-replication, Hoechst nuclear intensity, 48 h; activity, positive = re-replication: at 46.1 µM (top of the series)
Potency is the fitted concentration of half-maximal effect; tags give direction and shape of the fitted curve.

Which Potency does the source give for `O=C(C1COc2ccccc2O1)N1CCN(c2ccc([N+](=O)[O-])cc2)CC1` (centres undefined) here?
The Potency was “inactive”.

Which Potency does the source give for `COc1ccc(Nc2cc(=O)oc3ccccc23)cc1` here?
Its Potency is inconclusive [activator, full curve, poor fit].

For `CCOC(=O)CSc1ncc(-c2cccc(Cl)c2)cn1`, which Potency is on record?
Its Potency is “inactive”.

For `CCOC(=O)c1cc(COc2cc(Cl)cc(Cl)c2)on1`, which Potency is on record?
The Potency was “inactive”.

Which Potency does the source give for `CCc1nn(CC(=O)NCCN2CCOCC2)c(=O)c2cc3c(OC)cccc3n12` here?
The Potency was inconclusive [activator, single point].

Which Potency does the source give for `Cc1ccc2[nH]c3nc(N/N=C/c4cccc(O)c4)nnc3c2c1` here?
The Potency was inconclusive [activator, partial curve, poor fit].

For `O=C(COc1ncnc2ccccc12)c1ccc(Cl)cc1`, which Potency is on record?
The Potency was inconclusive [activator, single point].

Which Potency does the source give for `COc1ccc(CN2CCCC(C(=O)c3cccc(OC(C)C)c3)C2)cc1Cn1cccn1` (centres undefined) here?
The Potency was inconclusive [activator, partial curve, poor fit].

With `O=C(NCc1ccccn1)c1ccc(Cn2cc(Br)cn2)o1` as the compound, how does the Potency read?
The Potency was inconclusive [activator, partial curve].

Which Potency does the source give for `Cc1c(CCC(=O)O)c(=O)oc2cc(OCc3cccc(Cl)c3)ccc12` here?
The Potency was inconclusive [activator, single point].

For `CO[C@H]1/C=C/O[C@@]2(C)Oc3c(C)c(O)c4c(O)c(c(/C=N\N5CCN(C6CCCC6)CC5)c(O)c4c3C2=O)NC(=O)/C(C)=C\C=C\[C@H](C)[C@H](O)[C@@H](C)[C@@H](O)[C@@H](C)[C@H](OC(C)=O)[C@@H]1C`, which Potency is on record?
The Potency was “inactive”.

For `C/C(NC(=O)c1ccccc1)=C1/C(=O)CC2C1C2(C)C` (centres undefined), which Potency is on record?
The Potency was inconclusive [activator, partial curve, poor fit].

With `COc1cc(NC(=O)c2ccc(S(=O)(=O)N(C)c3ccccc3OC)cc2)cc(OC)c1` as the compound, how does the Potency read?
Its Potency is inconclusive [activator, partial curve, poor fit].

For `O=C(COC(=O)c1ccc(Cl)c(S(=O)(=O)NCc2ccccc2)c1)NCC1CCCO1` (centres undefined), which Potency is on record?
Its Potency is “inactive”.

Which Potency does the source give for `Cc1cc(C(=O)CSc2nc(N)cc(N)n2)c(C)n1CCc1ccc(F)cc1` here?
Its Potency is inconclusive [activator, single point].

With `COC(=O)c1cc(-c2ccccc2)n(CCN)c1C` as the compound, how does the Potency read?
The Potency was inconclusive [activator, partial curve, poor fit].

With `OC(CNCCc1ccc(C(F)(F)F)cc1)COC(c1ccccc1)c1ccccc1` (centres undefined) as the compound, how does the Potency read?
Its Potency is inconclusive [activator, partial curve, poor fit].

With `COc1ccc(C(O)(CCC(C)C)C(CN2CCOCC2)c2ccc(Cl)cc2)cc1` (centres undefined) as the compound, how does the Potency read?
The Potency was inconclusive [activator, single point].

Which Potency does the source give for `CN(C)S(=O)(=O)c1cccc(NC(=O)CN2C(=O)NC(Cc3c[nH]c4ccccc34)C2=O)c1` (centres undefined) here?
Its Potency is inconclusive [activator, full curve, poor fit].

With `CNc1nc(N)c(C(=O)Nc2cc(C)on2)s1` as the compound, how does the Potency read?
Its Potency is inconclusive [activator, partial curve, poor fit].

With `COc1cc2c3c(c1)C1(C(=O)N3C(C)(C)C=C2C)C(C#N)=C(N)Oc2cc(C)oc(=O)c21` (centres undefined) as the compound, how does the Potency read?
Its Potency is “inactive”.

For `CC1Cc2nc(SCC(=O)N3CCN(c4ccccc4)CC3)n(C)c(=O)c2S1` (centres undefined), which Potency is on record?
The Potency was inconclusive [activator, full curve, poor fit].

For `O=C1COc2ccc(NC(=O)c3ccccc3C(=O)O)cc2N1`, which Potency is on record?
Its Potency is “inactive”.

For `COc1ccccc1CNC(=O)Cn1nc(C)c([N+](=O)[O-])c1C`, which Potency is on record?
The Potency was “inactive”.

Which Potency does the source give for `Cn1c(N)cc(-c2ccc(F)cc2)c(C#N)c1=O` here?
The Potency was inconclusive [activator, partial curve, poor fit].

With `Cc1ccc(Nc2nc(-c3ccc(C)cc3)c(CC(=O)O)s2)cc1` as the compound, how does the Potency read?
The Potency was inconclusive [activator, single point].

For `CCN(C(=O)c1cccc(S(=O)(=O)N2CCCCC2)c1)C1CCS(=O)(=O)C1` (centres undefined), which Potency is on record?
Its Potency is “inactive”.

Which Potency does the source give for `CC(C)(C)C(=O)OCc1nc(-c2ccc(O)c(O)c2)cs1` here?
Its Potency is inconclusive [activator, single point].

With `COc1ccccc1N(CCC#N)C(=O)CSc1nnc2ccccn12` as the compound, how does the Potency read?
The Potency was inconclusive [activator, partial curve, poor fit].

For `COc1cccc(-n2cnc3scc(-c4cccs4)c3c2=O)c1`, which Potency is on record?
The Potency was “inactive”.

For `COc1ccc(-c2oc3ccccc3c(=O)c2OC(C)=O)cc1`, which Potency is on record?
The Potency was inconclusive [activator, single point].

For `CC(=O)Nc1cccc(NC(=O)C2CCCN2C(=O)Nc2cccc(F)c2)c1` (centres undefined), which Potency is on record?
Its Potency is inconclusive [activator, partial curve, poor fit].

For `Cc1ccc(C)c(N2CCN(C(=O)c3cc4c(C)nc5ccccc5c4o3)CC2)c1`, which Potency is on record?
Its Potency is active: 20.6 µM.

Which Potency does the source give for `COc1ccc(OC)c(N=Nc2c(O)c3ccccc3[nH]c2=O)c1` here?
Its Potency is inconclusive [activator, single point].

For `O=c1cc(-c2ccncc2)oc2c1ccc1ccccc12`, which Potency is on record?
The Potency was “inactive”.

For `FC(F)Sc1ccc(Nc2ncnc3nc[nH]c23)cc1`, which Potency is on record?
The Potency was inconclusive [activator, full curve].

For `COc1ccc(/C=C2\CN(Cc3ccccc3)C/C(=C\c3ccc(OC)cc3)C2=O)cc1`, which Potency is on record?
The Potency was active: 8.2 µM.

With `COc1cc(CCCN2CCNC[C@@H]2Cc2ccc(O)cc2)cc(OC)c1OC` as the compound, how does the Potency read?
Its Potency is “inactive”.

Which Potency does the source give for `Cc1cc(C)cc(N(C(=O)c2cccs2)C2C=CS(=O)(=O)C2)c1` (centres undefined) here?
Its Potency is inconclusive [activator, full curve, poor fit].

Which Potency does the source give for `CCCCCC(=O)Nc1cccc(C2=NOC3(C2)C[C@@H](C(N)=O)N(C(=O)Cc2ccc([N+](=O)[O-])cc2)C3)c1` (some centres undefined) here?
The Potency was “inactive”.

For `CCN(CC)c1ccc(/C=C2\CCC(/C=N/NC(=O)c3ccc(=O)n(C)c3)=C2N2CCOCC2)cc1`, which Potency is on record?
The Potency was inconclusive [activator, partial curve].

With `O=C(Cc1ccccc1)NNC(=O)c1ccccc1C(=O)O` as the compound, how does the Potency read?
The Potency was “inactive”.

Which Potency does the source give for `Cc1cc(C)c(S(=O)(=O)NCC2CCC(C(=O)NCCCN3CCC(C)CC3)CC2)c(C)c1` (centres undefined) here?
Its Potency is “inactive”.

For `CC(C(=O)Nc1ccc2c(c1)OCO2)N(C)CC(=O)Nc1ccccc1Cl` (centres undefined), which Potency is on record?
The Potency was “inactive”.

For `CC(C)c1ccc(S(=O)(=O)Nc2ccc(SC(F)F)cc2)cc1`, which Potency is on record?
Its Potency is inconclusive [activator, single point].

For `CC1CCCCC12NC(=O)N(CC(=O)Nc1ccc(N3CCCCC3)cc1)C2=O` (centres undefined), which Potency is on record?
The Potency was inconclusive [activator, partial curve, poor fit].

For `O=P(O)(O)c1ccccc1OCCOCCOCCOCCOc1ccccc1P(=O)(O)O`, which Potency is on record?
Its Potency is “inactive”.

For `Cc1cccc(NC(=O)CCC(=O)Nc2nnc(C(F)(F)F)s2)c1`, which Potency is on record?
The Potency was “inactive”.

For `CCOC(=O)N1CCC(NC(=O)c2ccc3c(c2)N=C(CC)c2cc(C)ccc2S3)CC1`, which Potency is on record?
The Potency was inconclusive [activator, single point].

Which Potency does the source give for `CCOC(=O)N1CCN(c2nc(-c3ccccc3)c3cc(C)ccc3n2)CC1` here?
Its Potency is active: 4.11 µM.

For `Cc1ccc(Cn2c(C)nc3c(c2=O)c2nc4ccccc4nc2n3Cc2ccco2)cc1`, which Potency is on record?
Its Potency is inconclusive [activator, single point].

For `CC(=O)Nc1ccc(SC(Sc2ccc(NC(C)=O)cc2)c2ccccc2)cc1`, which Potency is on record?
Its Potency is inconclusive [activator, single point].

For `COCCn1c(N2CCN(c3ccc(OC)cc3)CC2)nc2c1c(=O)[nH]c(=O)n2C`, which Potency is on record?
Its Potency is inconclusive [activator, single point].

Which Potency does the source give for `COc1ccc(OC)c(NC(=O)C(C)OC(=O)c2cc3ccccc3[nH]2)c1` (centres undefined) here?
The Potency was “inactive”.

For `O=C(O)CSC1CC(=O)N(c2ccc(Br)cc2)C1=O` (centres undefined), which Potency is on record?
The Potency was inconclusive [activator, partial curve, poor fit].

For `Cc1ccc(C(=O)Cn2c(C(=O)OCCO)cc3ccccc32)cc1`, which Potency is on record?
Its Potency is inconclusive [activator, single point].

For `O=C(c1ccc(NS(=O)(=O)c2ccc(F)cc2)cc1)N1CCCCC1`, which Potency is on record?
The Potency was “inactive”.

With `N#Cc1ccccc1Cn1c(=O)n(CCCC(=O)NCc2ccc3c(c2)OCO3)c(=O)c2ccccc21` as the compound, how does the activity, positive = re-replication read?
Its activity, positive = re-replication is inconclusive: -23.1% [activator].

With `O=C(Nc1ccc(OC(F)(F)C(F)F)c(NC(=O)c2ccc(F)cc2)c1)c1ccc(F)cc1` as the compound, how does the Potency read?
Its Potency is inconclusive [activator, single point].

For `O=C(Nc1ccccc1Oc1ccccc1)c1ccc(Br)o1`, which Potency is on record?
Its Potency is inconclusive [activator, single point].

Which Potency does the source give for `COc1ccc(NC(=O)CSc2ncc(-c3ccc(F)cc3)n2Cc2ccco2)cc1` here?
The Potency was inconclusive [activator, single point].

For `CCOC(=O)c1c(C)n(C)c2ccc(OCC(O)CN3CCCCCC3)cc12` (centres undefined), which Potency is on record?
Its Potency is “inactive”.

For `Cc1cc(Br)ccc1NC(=O)CN(C)C(=O)COc1cccc2c1OC(C)(C)C2`, which Potency is on record?
The Potency was “inactive”.

For `O=C(CN1CCN(c2ccccn2)CC1)Nc1ccc2ccccc2c1`, which Potency is on record?
The Potency was inconclusive [activator, full curve, poor fit].

With `O=C(COc1ccccc1/C=C1\SC(=S)NC1=O)Nc1ccc(F)cc1` as the compound, how does the Potency read?
The Potency was active: 1.46 µM.

For `Cc1ccc(S(=O)(=O)N2CCOC23CCN(C(=O)C(=O)NCCC(C)C)CC3)cc1`, which Potency is on record?
Its Potency is “inactive”.

Which Potency does the source give for `COc1cccc(-c2nnc(NC(=O)C3CCCCC3)o2)c1` here?
Its Potency is “inactive”.

With `O=C(OCCNc1nc(-c2ccccc2)nc2ccccc12)c1cccnc1` as the compound, how does the Potency read?
The Potency was “inactive”.

With `Cc1cccc(NS(=O)(=O)c2ccc(C)c(C(=O)N3CCN(C(=O)c4ccco4)CC3)c2)c1` as the compound, how does the Potency read?
The Potency was “inactive”.
